Test results from PubChem BioAssay AID2101 (National Center for Advancing Translational Sciences (NCATS), 2009).
The whole screen tested about 330,000 compounds, of which about 300 (0.091%) were called active. This list was built around the results that the source calls inconclusive (neither active nor inactive); the mix of calls is not that of the screen. Calls come from the whole dose curve; as a rule, active = well fitted inhibition curve with a large enough effect; inconclusive = small, poorly fitted or top-dose-only effect, or effect the other way, or another doubt; inactive = no such curve, though single readings can be large or run the other way. No potency is given beside an inconclusive call; the fits are too rough.

What follows are compounds tested against Lysosomal acid glucosylceramidase (Homo sapiens) (UniProt P04062) (assay: qHTS Assay for Inhibitors and Activators of N370S glucocerebrosidase as a Potential Chaperone Treatment of Gaucher Disease). Conditions: N370S GC spleen homogenate, 4MU-glucoside fluorescence; activity change, negative = inhibition: at 59.4 µM (top of the series) unless noted.
Potency is the fitted concentration of half-maximal effect.
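Throughout, for activity change, negative = inhibition: 0% = full enzyme activity and -100% = no enzyme basal.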

SMILES | activity change, negative = inhibition | Potency
COc1ccc(C(=O)N=S2CCN(C(=O)c3ccc(Cl)cc3)CC2)cc1 | inactive: 2.63% | –
CC[C@H](C)[C@H](NC(=O)[C@H](CC(C)C)NC(=O)[C@H](CO)NC(=O)[C@H](CCC(=O)O)NC(=O)[C@H](CC(C)C)NC(=O)[C@H](Cc1ccc(O)cc1)NC(=O)[C@H](CCCCN)NC(=O)[C@H](CCCCN)NC(=O)[C@H](C)NC(=O)[C@H](CO)NC(=O)[C@H](CC(C)C)NC(=O)[C@H](CCC(N)=O)NC(=O)CNC(=O)[C@H](CC(C)C)NC(=O)[C@H](CC(C)C)NC(=O)[C@H](CCCNC(=N)N)NC(=O)[C@H](CO)NC(=O)[C@H](Cc1ccccc1)NC(=O)[C@H](CC(=O)O)NC(=O)[C@H](CO)NC(=O)[C@@H](NC(=O)[C@H](Cc1ccccc1)NC(=O)[C@@H](NC(=O)CNC(=O)[C@H](CC(=O)O)NC(=O)[C@H](C)NC(=O)[C@@H](N)Cc1cnc[nH]1)C(C)C)[C@@H](C)O)C(N)=O | inactive: 0.855% | –
COc1ccc(-c2nn(C)c(=O)c3ccccc23)cc1CNS(C)(=O)=O | inactive: -1.05% | –
CCOc1ccc(NC(=O)CSc2nc(NS(=O)(=O)c3ccc(C)cc3)cc(=O)[nH]2)cc1 | – | inconclusive [activator, partial curve]
O=c1c2ccccc2nc2c3ccccc3c(NCCN3CCOCC3)nn12 | – | inconclusive [inhibitor, single point]
CCC1Sc2ccc(S(=O)(=O)CCC(=O)Nc3c(Cl)cc(OC)cc3OC)cc2NC1=O (configuration not stated) | – | inconclusive [inhibitor, single point]
Cc1ccc2oc3c(c(=O)c2c1)C(c1cccc(O)c1)N(c1ccccn1)C3=O (configuration not stated) | – | inconclusive [activator, full curve]
Cc1ccc(C(=O)/C=C/c2cn(CN3CCN(C)CC3)c3ccccc23)cc1 | – | inconclusive [activator, partial curve]
O=C(CSc1nnc(-c2ccc(OC(F)F)cc2)o1)N1CCOCC1 | inactive: -29.7% | –
CCCC1(C(=O)OC)NC(c2ccco2)C2C(=O)N(c3ccc(C)cc3)C(=O)C21 (configuration not stated) | – | inconclusive [inhibitor, full curve, poor fit]
c1ccc(COC[C@@H]2CO2)cc1 | inactive: 8.18% | –
c1ccc2c(c1)CSc1sccc1C2=C1CCNCC1 | – | inconclusive [inhibitor, partial curve]
CN(C)CCCN1c2ccccc2CCc2ccc(Cl)cc21 | – | inconclusive [inhibitor, single point]
CCOc1ccc(N(CC(=O)Nc2cccnc2)S(=O)(=O)c2ccc(C)cc2)cc1 | – | inconclusive [inhibitor, single point]
CCC(=O)N1N=C(c2ccc(C)o2)CC1c1ccc(Br)cc1 (configuration not stated) | – | inconclusive [activator, single point]
Cc1nc2nc(C)c(CCC(=O)Nc3ccc4c(c3)OCO4)c(C)n2n1 | – | inconclusive [inhibitor, single point]
CCOC(=O)c1ccccc1NC(=O)COC(=O)CCC(=O)c1ccc(C)cc1 | – | inconclusive [activator, single point]
O=C(CCC1N=C2c3ccccc3N=C(SCC(=O)NCC3CCCO3)N2C1=O)NCc1ccc(F)cc1 (configuration not stated) | – | inconclusive [activator, partial curve]
NC(=O)c1cc(S(=O)(=O)NC2CCCCC2)co1 | inconclusive: 28.6% [activator] | –
O=C1OCC(CO)(CO)N=C1NNc1cc(Cl)ccc1Cl | inactive: 2.54% | –
COc1ccc(CNC(=O)CCSc2ccc(F)cc2)cc1OC | – | inconclusive [inhibitor, single point]

SMILES | activity change, negative = inhibition | Potency
Cc1cc(C(C)(C)CC(C)(C)C)ccc1OCCOCC[N+](C)(C)Cc1ccccc1 | – | inconclusive [inhibitor, single point]
O=S(=O)(c1cc(Cl)ccc1Cl)N1CCN(Cc2ccco2)CC1 | – | inconclusive [inhibitor, partial curve]
O=C1C2C(c3ccccc3)CC=CC2C(c2ccc3ccccc3c2)N1Cc1ccccc1 (configuration not stated) | inactive: -1.71% | –
COC(=O)[C@H](Cc1ccccc1)NC(=O)[C@@H](C)CO | inactive: 13.8% [at 12.8 µM] | –
O=C1C=Cc2ccccc2/C1=C/c1[nH]c(=O)[nH]c1O | – | inconclusive [activator, single point]
Cc1cccc(N(C)S(=O)(=O)c2ccc3[nH]c(=O)c(=O)[nH]c3c2)c1 | – | inconclusive [inhibitor, partial curve]
CCOC(=O)c1c(C)nc2sc3c(=O)n(-c4ccc(C(C)=O)cc4)nnc3c2c1-c1ccc(OC)cc1 | inactive: -8.39% | –
CC(NCCc1ccc(S(N)(=O)=O)cc1)C(=O)NCc1ccccc1 (configuration not stated) | – | inconclusive [inhibitor, partial curve]
Nc1nc(-c2ccccc2)c(-c2ccc([N+](=O)[O-])cc2)s1 | – | inconclusive [inhibitor, partial curve]
Cc1csc(SCC(=O)N(c2ccccc2)C(C)C)n1 | inactive: -6.31% | –
CCn1c(SCC(=O)N2CCN(c3ccc(Cl)cc3)CC2)nc2ccccc2c1=O | – | inconclusive [activator, single point]
COCCn1nnnc1C(c1cc2ccc(C)cc2[nH]c1=O)N(Cc1ccco1)Cc1cccs1 (configuration not stated) | – | inconclusive [activator, single point]
Cc1cccc(NC(=O)c2cnc3sccn3c2=O)c1C | – | inconclusive [activator, full curve, poor fit]
Cc1c(Cl)c(C(=O)Nc2nc3ccccc3n2CCN2CCCCC2)nn1C | inactive: -4.81% | –
CCCCC[C@H](O)/C=C/[C@@H]1[C@@H](C/C=C\CCCC(=O)O)[C@H]2CO[C@@H]1C2 | – | inconclusive [activator, partial curve]
CCOC(=O)COc1nc(-c2ccco2)cc(-c2ccco2)c1C#N | – | inconclusive [activator, partial curve]
Cc1nc(Nc2ccc(S(N)(=O)=O)cc2)sc1-c1ccccc1 | inactive: 1.36% | –
C=CCn1c(C)cc(C(=O)Cn2nc(C(=O)O)c3ccccc3c2=O)c1C | – | inconclusive [inhibitor, partial curve]
CC1Cc2nc(SCC(=O)Nc3nccs3)n(Cc3ccccc3)c(=O)c2S1 (configuration not stated) | – | inconclusive [activator, single point]
COc1ccc(-c2c(C#N)c(N)nc3c2CCc2ccccc2-3)cc1OC | – | inconclusive [activator, partial curve]
Cc1ccc2c(c1)COc1c3ccc(C(=O)N4CCOCC4)cc3nn1-2 | inactive: 3.5% | –

SMILES | activity change, negative = inhibition | Potency
COCCNC(=O)/C(C#N)=C/c1ccc(N2CCOCC2)o1 | – | inconclusive [inhibitor, single point]
CCc1cc2c3c(c(=O)oc2cc1O)CCCC3 | – | inconclusive [activator, partial curve]
CCC(C)Nc1nc(-c2c[nH]c3ccccc23)cs1 (configuration not stated) | inactive: -22.7% | –
CC(C)c1ccc(/C=C2\SC(=S)N(CC(=O)NCCCN3CCOCC3)C2=O)cc1 | – | inconclusive [inhibitor, partial curve, poor fit]
COc1ccc2nc(NC(=O)C3CC(=O)N(c4ccccc4)C3)sc2c1 (configuration not stated) | – | inconclusive [inhibitor, partial curve, poor fit]
CCOC(=O)C1(CC2CC2)CCN(Cc2cn[nH]c2-c2ccccc2)CC1 | – | inconclusive [inhibitor, full curve, poor fit]
COC(=O)c1cc2c(s1)-c1ccccc1OC2 | – | inconclusive [activator, partial curve]
COCCCNC(=S)NCCc1ccc(F)cc1 | inactive: 1.21% | –
CCc1ccc(-c2cc(C)no2)cc1S(=O)(=O)NCCc1ccc(OC)c(OC)c1 | – | inconclusive [inhibitor, single point]
Oc1ccc(Cl)cc1C1=NNC(c2cc(Br)cc3c2OCOC3)C1 (configuration not stated) | – | inconclusive [activator, partial curve]
Cc1ccc(-c2nc3ccsc3c(=O)o2)cc1 | inactive: 7.72% | –
COC(CNC(=O)c1ccc2nc3ccccc3c(=O)n2c1)OC | – | inconclusive [activator, partial curve]
COCCNC(=S)N(CCCO)Cc1cc2cc3c(cc2[nH]c1=O)OCCO3 | – | inconclusive [activator, single point]
N#CC1(NC(=O)COC(=O)c2nccnc2N)CCCCC1 | – | inconclusive [activator, single point]
Oc1ccccc1N=Nc1nc(-c2ccccc2)c(-c2ccccc2)[nH]1 | – | inconclusive [activator, partial curve, poor fit]
COc1ccc(CNc2nc(-c3cccnc3)nc3ccccc23)c(OC)c1 | – | active: 11.2 µM
O=S(=O)(c1ccc(Cl)cc1)N(CCCN1CCOCC1)Cc1cccs1 | – | inconclusive [inhibitor, single point]
CC(=O)O[C@@]12CO[C@@H]1C[C@H](O)[C@@]1(C)C(=O)[C@H](O)C3=C(C)[C@@H](OC(=O)[C@H](O)[C@@H](NC(=O)OC(C)(C)C)c4ccccc4)C[C@](O)([C@@H](OC(=O)c4ccccc4)[C@H]21)C3(C)C | – | inconclusive [inhibitor, single point]
c1ccc(Oc2cc(-c3ccccc3)nc(-c3ccccc3)n2)cc1 | inactive: 3.43% | –
COc1ccc(C(=O)Nc2cc3c4c(c2)CC(=O)N4CCC3)c(OC)c1 | inactive: -2.16% | –
